This is one part of the list.
What was measured:
Experiment in all cases: glycan array binding signal (z-score within array); higher = stronger binding
Settings in all cases: glycan notation: IUPAC condensed, linker removed
[1] = target: Fuc(a1-3)[GalNAc(b1-4)]GlcNAc
Summary of the method: (§1)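 The binding signal is a Z-score computed within each array and averaged over linkers. Arrays of the same protein sequence at different concentrations or buffers were also averaged together. Data originate from 3228 arrays in the Consortium for Functional Glycomics database, kept only where the protein sequence was available.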

Fuc(a1-4)GlcNAc = target: Fuc(a1-4)GlcNAc
Summary of the method: as §1

Fuc(b1-3)GlcNAc = target: Fuc(b1-3)GlcNAc
Summary of the method: as §1

Gal(a1-2)Gal = target: Gal(a1-2)Gal
Summary of the method: as §1

Gal(a1-3)Gal = target: Gal(a1-3)Gal
Summary of the method: as §1

Gal(a1-3)Gal(b1-3)GlcNAc = target: Gal(a1-3)Gal(b1-3)GlcNAc
Summary of the method: as §1

Gal(a1-3)Gal(b1-4)Glc = target: Gal(a1-3)Gal(b1-4)Glc
Summary of the method: as §1

Gal(a1-3)Gal(b1-4)GlcNAc = target: Gal(a1-3)Gal(b1-4)GlcNAc
Summary of the method: as §1

[2] = target: Gal(a1-3)Gal(b1-4)[Fuc(a1-3)]GlcNAc
Summary of the method: as §1

Gal(a1-3)GalNAc = target: Gal(a1-3)GalNAc
Summary of the method: as §1

[3] = target: Gal(a1-3)[Gal(a1-4)]Gal(b1-4)GlcNAc
Summary of the method: as §1

Gal(a1-4)Gal(b1-4)Glc = target: Gal(a1-4)Gal(b1-4)Glc
Summary of the method: as §1

Gal(a1-4)Gal(b1-4)GlcNAc = target: Gal(a1-4)Gal(b1-4)GlcNAc
Summary of the method: as §1

Gal(a1-4)GlcNAc = target: Gal(a1-4)GlcNAc
Summary of the method: as §1

Gal(a1-6)Glc = target: Gal(a1-6)Glc
Summary of the method: as §1

Gal(b1-2)Gal = target: Gal(b1-2)Gal
Summary of the method: as §1

Gal(b1-3)Gal = target: Gal(b1-3)Gal
Summary of the method: as §1

Gal(b1-3)Gal(b1-4)GlcNAc = target: Gal(b1-3)Gal(b1-4)GlcNAc
Summary of the method: as §1

Gal(b1-3)GalNAc = target: Gal(b1-3)GalNAc
Summary of the method: as §1

[4] = target: Gal(b1-3)GalNAc(b1-3)Gal(a1-4)Gal(b1-4)Glc
Summary of the method: as §1

[5] = target: Gal(b1-3)GalNAc(b1-4)Gal(b1-4)Glc
Summary of the method: as §1

[6] = target: Gal(b1-3)GalNAc(b1-4)[Neu5Ac(a2-3)]Gal(b1-4)Glc
Summary of the method: as §1

Gal(b1-3)GlcNAc = target: Gal(b1-3)GlcNAc
Summary of the method: as §1

[7] = target: Gal(b1-3)GlcNAc(b1-2)Man(a1-3)[Gal(b1-3)GlcNAc(b1-2)Man(a1-6)]Man(b1-4)GlcNAc(b1-4)GlcNAc
Summary of the method: as §1

[8] = target: Gal(b1-3)GlcNAc(b1-3)Gal(b1-3)GlcNAc
Summary of the method: as §1

[9] = target: Gal(b1-3)GlcNAc(b1-3)Gal(b1-4)Glc
Summary of the method: as §1

[10] = target: Gal(b1-3)GlcNAc(b1-3)Gal(b1-4)GlcNAc
Summary of the method: as §1

[11] = target: Gal(b1-3)[Fuc(a1-4)]GlcNAc
Summary of the method: as §1

[12] = target: Gal(b1-3)[Fuc(a1-4)]GlcNAc(b1-3)Gal(b1-3)[Fuc(a1-4)]GlcNAc
Summary of the method: as §1

[13] = target: Gal(b1-3)[Fuc(a1-4)]GlcNAc(b1-3)Gal(b1-4)GlcNAc
Summary of the method: as §1

[14] = target: Gal(b1-3)[Fuc(a1-4)]GlcNAc(b1-3)Gal(b1-4)[Fuc(a1-3)]GlcNAc
Summary of the method: as §1

[15] = target: Gal(b1-3)[GlcNAc(b1-6)]GalNAc
Summary of the method: as §1

[16] = target: Gal(b1-3)[Neu5Ac(a2-6)]GalNAc
Summary of the method: as §1

[17] = target: Gal(b1-3)[Neu5Ac(a2-6)]GlcNAc(b1-6)Gal(b1-4)Glc
Summary of the method: as §1

[18] = target: Gal(b1-3)[Neu5Ac(b2-6)]GalNAc
Summary of the method: as §1

[19] = target: Gal(b1-4)GalNAc(a1-3)[Fuc(a1-2)]Gal(b1-4)GlcNAc
Summary of the method: as §1

[20] = target: Gal(b1-4)GalNAc(b1-3)[Fuc(a1-2)]Gal(b1-4)GlcNAc
Summary of the method: as §1

Gal(b1-4)Glc = target: Gal(b1-4)Glc
Summary of the method: as §1

Gal(b1-4)Glc6S = target: Gal(b1-4)Glc6S
Summary of the method: as §1

Gal(b1-4)GlcNAc = target: Gal(b1-4)GlcNAc
Summary of the method: as §1

[21] = target: Gal(b1-4)GlcNAc(a1-6)Gal(b1-4)GlcNAc
Summary of the method: as §1

[22] = target: Gal(b1-4)GlcNAc(b1-2)Man(a1-3)[Gal(b1-4)GlcNAc(b1-2)Man(a1-6)]Man(b1-4)GlcNAc(b1-4)GlcNAc
Summary of the method: as §1

[23] = target: Gal(b1-4)GlcNAc(b1-3)Gal(b1-3)GlcNAc
Summary of the method: as §1

[24] = target: Gal(b1-4)GlcNAc(b1-3)Gal(b1-4)Glc
Summary of the method: as §1

[25] = target: Gal(b1-4)GlcNAc(b1-3)Gal(b1-4)GlcNAc
Summary of the method: as §1

B1: CBM32-4 (Clostridium perfringens), P26831 (protein)
chain: MGSSHHHHHHSSGLVPRGSHMASVYEPSLVDAYVGDDGAKKAVDGDLKTRVKFLGAPSTGDTIVYDLGQEILVDNLKYVVLDTEVDHVRDGKIQLSLDGETWTDAINIGDGVENGVDDMFSTPLKNGYKHGNQSGGIVPIDSAYVEGDNLNQKARYVRILFTAPYRHRWTVINELMINNGEYIPTVNDPT
glycan array binding signal (z-score) [1]: -0.411
glycan array binding signal (z-score) (Fuc(a1-4)GlcNAc): 0.045
glycan array binding signal (z-score) (Fuc(b1-3)GlcNAc): -0.264
glycan array binding signal (z-score) (Gal(a1-2)Gal): -0.369
glycan array binding signal (z-score) (Gal(a1-3)Gal): -0.431
glycan array binding signal (z-score) (Gal(a1-3)Gal(b1-3)GlcNAc): -0.458
glycan array binding signal (z-score) (Gal(a1-3)Gal(b1-4)Glc): -0.149
glycan array binding signal (z-score) (Gal(a1-3)Gal(b1-4)GlcNAc): -0.419
glycan array binding signal (z-score) [2]: -0.501
glycan array binding signal (z-score) (Gal(a1-3)GalNAc): -0.431
glycan array binding signal (z-score) [3]: -0.415
glycan array binding signal (z-score) (Gal(a1-4)Gal(b1-4)Glc): -0.204
glycan array binding signal (z-score) (Gal(a1-4)Gal(b1-4)GlcNAc): -0.163
glycan array binding signal (z-score) (Gal(a1-4)GlcNAc): -0.286
glycan array binding signal (z-score) (Gal(a1-6)Glc): -0.113
glycan array binding signal (z-score) (Gal(b1-2)Gal): -0.149
glycan array binding signal (z-score) (Gal(b1-3)Gal): -0.33
glycan array binding signal (z-score) (Gal(b1-3)Gal(b1-4)GlcNAc): -0.57
glycan array binding signal (z-score) (Gal(b1-3)GalNAc): -0.454
glycan array binding signal (z-score) [4]: -0.307
glycan array binding signal (z-score) [5]: -0.39
glycan array binding signal (z-score) [6]: -0.49
glycan array binding signal (z-score) (Gal(b1-3)GlcNAc): -0.387
glycan array binding signal (z-score) [7]: -0.525
glycan array binding signal (z-score) [8]: -0.398
glycan array binding signal (z-score) [9]: -0.494
glycan array binding signal (z-score) [10]: -0.292
glycan array binding signal (z-score) [11]: -0.34
glycan array binding signal (z-score) [12]: -0.454
glycan array binding signal (z-score) [13]: -0.418
glycan array binding signal (z-score) [14]: -0.268
glycan array binding signal (z-score) [15]: -0.468
glycan array binding signal (z-score) [16]: -0.271
glycan array binding signal (z-score) [17]: -0.491
glycan array binding signal (z-score) [18]: -0.406
glycan array binding signal (z-score) [19]: -0.545
glycan array binding signal (z-score) [20]: -0.508
glycan array binding signal (z-score) (Gal(b1-4)Glc): -0.332
glycan array binding signal (z-score) (Gal(b1-4)Glc6S): 0.289
glycan array binding signal (z-score) (Gal(b1-4)GlcNAc): -0.4
glycan array binding signal (z-score) [21]: -0.326
glycan array binding signal (z-score) [22]: -0.434
glycan array binding signal (z-score) [23]: -0.143
glycan array binding signal (z-score) [24]: -0.422
glycan array binding signal (z-score) [25]: -0.343

— the supplement of paper PMC8728848
